# The whole screen tested about 94,000 compounds, of which about 6,200 (6.6%) were called active. Inconclusive means that the source gave no clear call. Such entries were picked first, then a sample of the others. Calls come from the whole dose curve; as a rule, active = well fitted inhibition curve with a large enough effect; inconclusive = small, poorly fitted or top-dose-only effect; inactive = flat fitted curve, though single readings scatter. A potency beside an inconclusive call is a rough fit, not a confirmed value.
# Assay: Cytotoxic Profiling in HEK 293 Cell Line of Diverse Libraries Using Quantitative High-Throughput Screening; note: nearly all actives have a fitted effect of over 60% in size
# Settings: HEK 293 viability, ATP luminescence (CellTiter-Glo), 48-72 h; series mostly up to 115 µM
# Outline: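 Viability of HEK 293 cells, plated at 250 cells/well, was judged by cellular ATP after compound treatment for 48 or 72 hr. Luminescence was imaged 10 min after CellTiter-Glo addition at room temperature.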
# Potency is the fitted concentration of half-maximal effect; tags give direction and shape of the fitted curve.
row,Compound,Potency
1,O=C(NC1CCCN(c2cc(-c3ccccc3)[nH]n2)C1)c1ccc2nc[nH]c2c1 (configuration not stated),inactive
2,O=C1CO[C@H]2CN(c3nccc(C(F)(F)F)n3)C[C@H]2N1Cc1ccc(F)cc1,active: 100 µM
3,O=C(NC1CCN(Cc2cccc(-c3cccs3)c2)CC1)c1cccnc1,"inconclusive: 56.2 µM [inhibitor, partial curve, poor fit]"
4,O=C(c1ccc(F)cc1)N1CCC2(CC1)CC(N(Cc1ccc(F)cc1)C1CC1)CCO2 (configuration not stated),"inconclusive: 50.1 µM [inhibitor, partial curve, poor fit]"
5,COCc1ccc2c(c1)c(OC(C)(C)C(=O)NC1CC1)nn2CCC(C)C,"inconclusive: 89.1 µM [inhibitor, partial curve]"
6,Cn1cc(-c2cc3c(ccn3Cc3ccncc3)c(N3CCOCC3)n2)cn1,inactive
7,O=C1NCN(Cc2ccc(Cl)cc2)C12CCN(Cc1ccsc1)CC2,"inconclusive: 44.7 µM [inhibitor, partial curve, poor fit]"
8,O=C(NCc1ccc(F)c(F)c1)c1ccc2nnc(-c3cc[nH]c3)n2c1,"inconclusive: 56.2 µM [inhibitor, partial curve, poor fit]"
9,c1ccc2c(c1)CC(N1CCC(CN(Cc3ccc4nonc4c3)CC3CCCO3)CC1)C2 (configuration not stated),"inconclusive: 79.4 µM [inhibitor, partial curve]"
10,Cn1nc(C2CCNCC2)n(-c2ccccc2)c1=O,inactive
11,COc1ccc(-c2ccccc2)cc1N1C(=O)[C@@H]2C[C@H]1CN2C(=O)C1(N)CC1,inactive
12,O=C1NC2(CCN(Cc3ccc(C(F)(F)F)cc3)CC2)Oc2ccccc21,"inconclusive: 35.5 µM [inhibitor, single point]"
13,O=C(C1CC1)N1CC2(CCCN2CC2CC2)Cc2ccccc21 (configuration not stated),"inconclusive: 89.1 µM [inhibitor, partial curve, poor fit]"
14,COCCCNC(=O)CCCN1C(=O)COc2ccc(C(=O)COc3ccc(C)c(C)c3)cc21,"inconclusive: 10 µM [inhibitor, full curve, poor fit]"
15,COCC1CCCCN1C(=O)c1ccc2oc(CCc3ccccc3)nc2c1 (configuration not stated),"inconclusive: 89.1 µM [inhibitor, single point]"
16,CCc1noc(CC2CCOC3(CCN(S(=O)(=O)c4cc(F)ccc4C)CC3)C2)n1 (configuration not stated),"inconclusive: 35.5 µM [inhibitor, partial curve, poor fit]"
17,CC(C)N[C@H]1C[C@@H](Cc2cc(COc3ccccc3)on2)C1(C)C,active: 63.1 µM
18,COc1cccc(CCC(=O)N2CCCC(Nc3ccc(F)cc3)C2)c1 (configuration not stated),"inconclusive: 39.8 µM [inhibitor, partial curve]"
19,CC(=O)N1CCN([C@H]2[C@@H]3OC[C@@H](O3)[C@@H](NC(=O)Nc3ccc(F)cc3)[C@@H]2O)CC1,inactive
20,Cc1ccc(NC(=O)N2CCN(C(=O)N3CC4CC(C3)[C@H]3CCCC(=O)N3C4)CC2)cc1C (some centres not stated),inactive
21,CSc1ccc(-c2cccc(CN3CCC(NC(=O)Nc4ccc(Cl)cc4)CC3)c2)cc1,active: 22.4 µM

row,Compound,Potency
1,CCCNC(=O)c1c(C)oc2ccn(Cc3ccc(F)cc3)c(=O)c12,active: 35.5 µM
2,Cc1ccc(NC(=O)NC2CCN(C(=O)N3CC4CC(C3)[C@H]3CCCC(=O)N3C4)CC2)cc1C (some centres not stated),inactive
3,O=C(NC1CCCCC1)c1nc2sccn2c1-c1ccncc1,inactive
4,Cc1ccc(OCc2nc(C3CCCCN3C(=O)C3CC3)no2)cc1 (configuration not stated),"inconclusive: 44.7 µM [inhibitor, partial curve]"
5,Fc1cccc(-c2cnc([C@@H]3COCCN3C3CCCCC3)[nH]2)c1,"inconclusive: 126 µM [inhibitor, single point]"
6,O=C(CCCc1ccccc1)N1CCCC1c1noc(COc2ccc(F)cc2)n1 (configuration not stated),"inconclusive: 50.1 µM [inhibitor, partial curve, poor fit]"
7,Cc1cccc(NC(=O)N2CC(Oc3ccc(-c4nc(-c5ccccc5)no4)cc3)C2)c1,"inconclusive: 20 µM [inhibitor, full curve, poor fit]"
8,O=C1COc2ccc(NCc3cccs3)nc2CN1CCOc1ccccc1,active: 89.1 µM
9,COc1ccccc1Nc1ccnc(N2CCN(C(=O)c3ccc(F)cc3)CC2)n1,active: 50.1 µM
10,Cc1nc(CN2C(=O)OC3(CCN(C(=O)Cc4ccccn4)CC3)C2(C)c2ccccc2)cs1 (configuration not stated),inactive
11,Cc1noc(C)c1-c1cnc(Nc2ccc(F)cc2)c2c1CCO2,"inconclusive: 56.2 µM [inhibitor, full curve, poor fit]"
12,COc1cccc(-c2cc(C(=O)NCC(F)(F)F)c3cnn(C)c3n2)c1,inactive
13,COCc1ccc2c(c1)c(OC(C)(C)C(=O)NCCN(C)C)nn2Cc1ccccc1,inactive
14,Cc1nnc2ccc(N3CCCC(NC(=O)c4ccccc4Cl)C3)nn12 (configuration not stated),"inconclusive: 39.8 µM [inhibitor, partial curve, poor fit]"
15,COc1ccc(C(=O)N2CCCC3(C2)NC(=O)N(Cc2cccc(Cl)c2)C3=O)cc1F (configuration not stated),"inconclusive: 89.1 µM [inhibitor, single point]"
16,O=C(C[C@@H]1CCNC[C@@H]1Cc1cc(CC2CCCCC2)on1)N1CCC(Cc2ccccc2)CC1,"inconclusive: 7.08 µM [inhibitor, full curve, poor fit]"
17,O=C(CCn1ccn2nc3c(c2c1=O)CCCC3)Nc1cccc(C(F)(F)F)c1,"inconclusive: 44.7 µM [inhibitor, partial curve, poor fit]"
18,CCNC(=O)N1CC(C(=O)NC(C)c2ccccc2)CC(c2ccc(F)c(C)c2)C1 (configuration not stated),"inconclusive: 35.5 µM [inhibitor, partial curve, poor fit]"
19,Cc1cccc(C(=O)N2CCCCCCNC(=O)[C@@H]3CCCC[C@@H]32)c1,"inconclusive: 79.4 µM [inhibitor, partial curve, poor fit]"
20,Cc1ccc(C2=NC3(CCN(C(=O)c4cccc(N(C)C)c4)CC3)ON2)cc1,inactive
21,COc1cccc(CC(=O)N2CCN(c3cc(-c4cccs4)[nH]n3)CC2)c1,"inconclusive: 50.1 µM [inhibitor, partial curve, poor fit]"

# — PubChem BioAssay AID1345083 (National Center for Advancing Translational Sciences (NCATS), 2018)
